Consider one molecule from US20250002581A1.

For the assay, the target named is PD1 (human) (UniProt Q15116). The experiment in a line: flow cytometry on 293T-PD1 cells, antibody 10 ng/ml. (In flow cytometry, cells or beads pass a laser one at a time.)
Sequence of UniProt Q15116 (Q15116 25-288): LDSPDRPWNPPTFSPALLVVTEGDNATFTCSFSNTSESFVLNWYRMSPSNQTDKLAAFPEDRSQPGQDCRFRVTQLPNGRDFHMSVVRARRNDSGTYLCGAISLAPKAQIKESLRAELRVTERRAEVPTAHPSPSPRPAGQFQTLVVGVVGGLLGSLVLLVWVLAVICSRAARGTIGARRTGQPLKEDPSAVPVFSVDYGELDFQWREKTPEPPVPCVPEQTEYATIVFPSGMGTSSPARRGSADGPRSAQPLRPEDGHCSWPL

B1: hufrCH101-IgG4 (antibody)
heavy: QVQLQESGPGLVKPSETLSLTCTVSGYSITSGFAWHWIRQPPGKGLEWIGYIHYSGSTNYNPSLKSRVTISVDTSKNQFSLKLSSVTAADTAVYYCARSDFWGQGTLVTVSSASTKGPSVFPLAPCSRSTSESTAALGCLVKDYFPEPVTVSWNSGALTSGVHTFPAVLQSSGLYSLSSVVTVPSSSLGTKTYTCNVDHKPSNTKVDKRV[not shown - human IgG4 Fc with S228P (EU numbers)]
light: DVVMTQSPLSLPVTLGQPASISCTSSQSLLDRDGETFMNWFQQRPGQSPRRLIYLVSKLDFGVPDRFSGSGSGTDFTLKISRVEAEDVGVYYCWQGTHFPLTFGGGTKVEIKRTVAAPSVFIFPPSDEQLKSGTASVVCLLNNFYPREAKVQWKVDNALQSGNSQESVTEQDSKDSTYSLSSTLTLSKADYEKHKVYACEVTHQGLSSPVTKSFNRGEC
In turn, B1 showed a 293T-PD1 (%) of 1.58%.
